Laboratory results taken from PubChem BioAssay AID504339 (National Center for Advancing Translational Sciences (NCATS), 2011).
About 17,000 (4.4%) of roughly 390,000 compounds were called active. Inconclusive results, whose numbers are uncertain, are shown with a selection of clear calls. Calls follow the shape of the dose curve; as a rule, active = well fitted inhibition curve with a large enough effect; inconclusive = small, poorly fitted or top-dose-only effect; inactive = no such curve, though single readings can be large or run the other way. A potency beside an inconclusive call is a rough fit, not a confirmed value.

These compounds were tested against Lysine-specific demethylase 4A (Homo sapiens) (UniProt O75164) (assay: qHTS Assay for Inhibitors of JMJD2A-Tudor Domain). Conditions: AlphaScreen JMJD2A-Tudor / H3K4me3 peptide binding; series mostly up to 114 µM.
UniProt O75164, sequence (O75164 whole entry, looked up, the tested form may be a part): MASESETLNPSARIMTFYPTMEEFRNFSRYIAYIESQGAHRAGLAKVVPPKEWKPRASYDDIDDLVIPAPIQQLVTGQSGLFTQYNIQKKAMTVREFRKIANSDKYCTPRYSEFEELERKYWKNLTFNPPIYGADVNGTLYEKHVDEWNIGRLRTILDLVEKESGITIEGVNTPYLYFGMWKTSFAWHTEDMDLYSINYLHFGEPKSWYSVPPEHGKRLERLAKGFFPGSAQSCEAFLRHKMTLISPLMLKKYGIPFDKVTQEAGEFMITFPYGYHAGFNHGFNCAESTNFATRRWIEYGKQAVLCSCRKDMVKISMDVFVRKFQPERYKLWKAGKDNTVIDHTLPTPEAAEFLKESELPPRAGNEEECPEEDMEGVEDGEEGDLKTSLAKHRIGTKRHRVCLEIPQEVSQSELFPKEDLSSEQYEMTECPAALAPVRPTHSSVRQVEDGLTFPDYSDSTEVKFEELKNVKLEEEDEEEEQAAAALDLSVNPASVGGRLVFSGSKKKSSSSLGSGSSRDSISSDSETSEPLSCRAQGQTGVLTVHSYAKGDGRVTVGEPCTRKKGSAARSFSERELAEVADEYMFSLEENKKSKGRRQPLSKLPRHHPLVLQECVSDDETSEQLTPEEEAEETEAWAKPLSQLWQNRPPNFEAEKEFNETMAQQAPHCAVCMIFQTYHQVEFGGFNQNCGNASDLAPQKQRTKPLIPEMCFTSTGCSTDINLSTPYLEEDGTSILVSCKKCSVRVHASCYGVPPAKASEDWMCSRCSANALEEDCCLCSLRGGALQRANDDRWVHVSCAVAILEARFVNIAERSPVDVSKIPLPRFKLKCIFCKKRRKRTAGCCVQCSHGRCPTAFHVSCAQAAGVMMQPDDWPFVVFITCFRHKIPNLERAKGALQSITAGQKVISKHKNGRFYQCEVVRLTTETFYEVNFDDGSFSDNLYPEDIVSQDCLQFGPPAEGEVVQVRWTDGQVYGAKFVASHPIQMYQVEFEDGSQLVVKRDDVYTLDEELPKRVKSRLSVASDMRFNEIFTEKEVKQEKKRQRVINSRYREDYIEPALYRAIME
Also: nearly all actives have a fitted effect of over 50% in size.
Potency is read from the fitted curve at half-maximal effect; tags tell the direction and shape of the fitted curve.

Q: For `CC(C)N(C(=O)Cn1cc(SCC(=O)Nc2ccccc2C(F)(F)F)c2ccccc21)C(C)C`, which Potency is on record?
A: The Potency was “inactive”.

Q: Which Potency does the source give for `COc1cc(SC)ccc1C(=O)NCCc1c[nH]c2ccccc12` here?
A: Its Potency is inconclusive: 50.1 µM [inhibitor, partial curve].

Q: For `CCCCCCc1c(C)nc(-n2[nH]c(C)c(CCO)c2=O)[nH]c1=O`, which Potency is on record?
A: The Potency was inconclusive: 79.4 µM [inhibitor, partial curve].

Q: With `CCc1cccc(CC)c1NC(=S)NCc1nc2ccccc2[nH]1` as the compound, how does the Potency read?
A: Its Potency is “inactive”.

Q: `Cc1cc(C)n2nc(C(=O)OCC(=O)Nc3cc(S(=O)(=O)N4CCOCC4)ccc3Cl)nc2n1` was tested. Which Potency did it give?
A: Its Potency is “inactive”.

Q: With `C/C=C\C=C\C(=O)N1CC2(CC(c3cccc(NC(=O)/C(C)=C\C)c3)=NO2)C[C@H]1C(N)=O` (stereo not given in full) as the compound, how does the Potency read?
A: The Potency was inconclusive: 79.4 µM [inhibitor, partial curve].

Q: Which Potency does the source give for `O=C(O)c1cc(NCc2ccc3c(c2)OCO3)ccc1N1CCOCC1` here?
A: Its Potency is “inactive”.

Q: Which Potency does the source give for `COc1ccc(N=Nc2c(N)n[nH]c2N)cc1` here?
A: Its Potency is inconclusive: 44.7 µM [inhibitor, single point].

Q: For `Cn1cccc1/C=C(/C#N)c1ccc(F)cc1`, which Potency is on record?
A: The Potency was inconclusive: 25.1 µM [inhibitor, full curve].

Q: With `O=C(CN1CCN(C(c2ccccc2)c2ccccc2)CC1)N1CCOCC1` as the compound, how does the Potency read?
A: Its Potency is active: 17.8 µM.

Q: For `COc1ccc(NC(=O)Cn2cc(C(=O)c3ccccc3OC)c(=O)c3ccc(C)nc32)cc1OC`, which Potency is on record?
A: Its Potency is “inactive”.

Q: For `O=C(Nc1ccc2c(c1)OCO2)c1cc(-c2cccnc2)nc2ccccc12`, which Potency is on record?
A: The Potency was inconclusive: 56.2 µM [inhibitor, partial curve].

Q: Which Potency does the source give for `CC1=CC(C)(C)Nc2ccc(OC(=O)C(Cc3ccccc3)N3C(=O)C4CCCCC4C3=O)cc21` (stereo not given) here?
A: Its Potency is inconclusive: 50.1 µM [inhibitor, partial curve].

Q: Which Potency does the source give for `NC(=O)CSc1nnc(-c2ccc(S(=O)(=O)N3CCCC3)cc2)n1CC1CCCO1` (stereo not given) here?
A: The Potency was “inactive”.

Q: Which Potency does the source give for `Cn1c(N)c(C(=O)COC(=O)CSc2cccc3cccc(Cl)c23)c(=O)n(C)c1=O` here?
A: The Potency was active: 50.1 µM.

Q: For `COc1ccc2sc(N(CCCN(C)C)C(=O)c3ccc(S(=O)(=O)N(C)Cc4ccccc4)cc3)nc2c1`, which Potency is on record?
A: The Potency was active: 50.1 µM.

Q: With `O=C(Nc1ccccc1N1CCCC1)c1cccc(-c2cc3ccccc3oc2=O)c1` as the compound, how does the Potency read?
A: Its Potency is inconclusive: 8.91 µM [inhibitor, full curve, poor fit].

Q: Which Potency does the source give for `CCCC1(c2ccccc2)NC(=O)N(CC(=O)Nc2cc(OC)cc(OC)c2)C1=O` (stereo not given) here?
A: Its Potency is “inactive”.

Q: `COc1ccc(NC(=O)CSc2nnc(-c3ccco3)c(-c3ccco3)n2)cc1OC` was tested. Which Potency did it give?
A: The Potency was inconclusive: 35.5 µM [inhibitor, full curve].

Q: For `O=C(N/N=C/c1ccc([N+](=O)[O-])cc1)c1cc(C2CC2)[nH]n1`, which Potency is on record?
A: The Potency was “inactive”.

Q: With `CCOC(=O)C1CCC(CN(Cc2ccc(Cl)cc2)S(=O)(=O)c2cccc(Cl)c2C)CC1` (stereo not given) as the compound, how does the Potency read?
A: Its Potency is “inactive”.

Q: `CC(=O)c1ccc(NC(=O)CN(C)CC(=O)Nc2cccc(F)c2)cc1` was tested. Which Potency did it give?
A: Its Potency is inconclusive: 1.41 µM [inhibitor, full curve].

Q: For `CC(C)(C)c1ccc(C(=O)CCCSC2=C(C#N)C(c3ccco3)C3=C(CCCC3=O)N2)cc1` (stereo not given), which Potency is on record?
A: Its Potency is inconclusive: 12.6 µM [inhibitor, full curve, poor fit].

Q: For `Cc1nc2c3ccccc3[nH]c(=O)n2n1`, which Potency is on record?
A: The Potency was “inactive”.

Q: Which Potency does the source give for `O=c1c(-c2ccccc2)c(-c2ccccc2)oc2cc(O)cc(O)c12` here?
A: Its Potency is inconclusive: 50.1 µM [inhibitor, partial curve].

Q: Which Potency does the source give for `CCOC(=O)C1CCN(C(=O)c2cc3sc(C)cc3n2C)CC1` here?
A: Its Potency is inconclusive: 50.1 µM [inhibitor, partial curve].

Q: Which Potency does the source give for `O=C(COc1cccc(Cl)c1Cl)Nc1ccc2c(c1)CCC2` here?
A: The Potency was inconclusive: 89.1 µM [inhibitor, single point].

Q: `COc1ccc(NCC(=O)N/N=C/C(C)c2ccccc2)cc1` (stereo not given) was tested. Which Potency did it give?
A: The Potency was inconclusive: 79.4 µM [inhibitor, partial curve].

Q: `Cc1ccc(/C=C/C(=O)Nc2ccncc2)o1` was tested. Which Potency did it give?
A: Its Potency is inconclusive: 39.8 µM [inhibitor, single point].

Q: How did the Potency turn out when `CCn1cc(/C=C(\NC(=O)c2ccc(OC)c(OC)c2)C(=O)N2CCOCC2)c2ccccc21` was run?
A: The Potency was inconclusive: 22.4 µM [inhibitor, full curve, poor fit].

Q: `COc1cc(CNn2c(C)n[nH]c2=S)cc(Br)c1OCC(=O)NC(C)(C)C` was tested. Which Potency did it give?
A: The Potency was inconclusive: 89.1 µM [inhibitor, single point].

Q: `Cc1nc(N2CCOCC2)nc(N2CCCC2)c1[N+](=O)[O-]` was tested. Which Potency did it give?
A: The Potency was inconclusive: 39.8 µM [inhibitor, single point].

Q: With `S=c1[nH]nc(-c2ccncc2)n1/N=C/C=C/c1ccccc1` as the compound, how does the Potency read?
A: Its Potency is active: 4.47 µM.

Q: With `CCCc1[nH]n(-c2ccc([N+](=O)[O-])cc2)c(=O)c1C(C)=NCc1ccncc1` as the compound, how does the Potency read?
A: The Potency was inconclusive: 56.2 µM [inhibitor, partial curve].

Q: `COc1ccccc1CCNC(=O)Cc1c(C)c2cc(Cl)c(O)cc2oc1=O` was tested. Which Potency did it give?
A: The Potency was “inactive”.

Q: Which Potency does the source give for `COc1ccc(C)c2sc(NC(=O)c3ccc(S(=O)(=O)N(C)C)cc3)nc12` here?
A: The Potency was “inactive”.

Q: Which Potency does the source give for `Cc1cccc(Cn2c(SCCN3CCOCC3)nc3c2c(=O)n(C)c(=O)n3C)c1` here?
A: The Potency was “inactive”.

Q: `CCOc1ccc(CNC(=O)c2oc3c(c2C)-c2nn(Cc4cccc(Cl)c4)cc2CC3)cc1` was tested. Which Potency did it give?
A: Its Potency is “inactive”.

Q: Which Potency does the source give for `CCCc1c(C(=O)N/N=C/c2cccc3ccccc23)nnn1-c1nonc1N` here?
A: The Potency was “inactive”.

Q: `Cc1ccc(S(=O)(=O)N2CCN(C(=O)c3ccc(N4CCC(C)CC4)c([N+](=O)[O-])c3)CC2)cc1` was tested. Which Potency did it give?
A: The Potency was inconclusive: 11.2 µM [inhibitor, full curve, poor fit].

Q: `O=[N+]([O-])c1ccc(O)c(Nc2c([N+](=O)[O-])ccc3nonc23)c1` was tested. Which Potency did it give?
A: Its Potency is inconclusive: 22.4 µM [inhibitor, full curve].

Q: With `CCOC(=O)c1ccc(N2C(=O)c3n[nH]c(-c4ccco4)c3C2c2ccc(C(=O)OC)cc2)cc1` (stereo not given) as the compound, how does the Potency read?
A: Its Potency is inconclusive: 25.1 µM [inhibitor, full curve].

Q: How did the Potency turn out when `Cc1ccc(O)c(C(=O)/C=C/c2ccc3c(c2)OCCCO3)c1` was run?
A: Its Potency is active: 15.8 µM.

Q: Which Potency does the source give for `COc1ccc(OCC(=O)Nc2nc3ccc(NC(C)=O)cc3s2)cc1` here?
A: The Potency was inconclusive: 39.8 µM [inhibitor, full curve].

Q: `Cc1ccc(CCNC(=O)C2CCCN(S(=O)(=O)c3c(C)nn(C)c3C)C2)cc1` (stereo not given) was tested. Which Potency did it give?
A: The Potency was inconclusive: 44.7 µM [inhibitor, partial curve].

Q: How did the Potency turn out when `Cn1c(=O)oc2cc(S(=O)(=O)NCCC(=O)NCc3ccccc3Cl)ccc21` was run?
A: The Potency was inconclusive: 25.1 µM [inhibitor, full curve, poor fit].

Q: `O=C1NC2(CCCCC2)OC12CCCCC2` was tested. Which Potency did it give?
A: The Potency was “inactive”.

Q: With `Clc1ccc2nc(CN3CCCc4ccccc43)cn2c1` as the compound, how does the Potency read?
A: The Potency was active: 50.1 µM.

Q: For `COc1ccc(CCNC(=O)c2cc3cc(F)ccc3nc2C)cc1OC`, which Potency is on record?
A: Its Potency is “inactive”.

Q: `O=C(CN1C(=O)NC(Cc2c[nH]c3ccccc23)C1=O)Nc1cccc(S(=O)(=O)N2CCCC2)c1` (stereo not given) was tested. Which Potency did it give?
A: Its Potency is inconclusive: 79.4 µM [inhibitor, single point].

Q: `CCCN=C1N(CC)C[C@@H]2[C@@H]3C(=O)N(C)C(=O)[C@@H]3[C@](C)(C(=O)OC)N12` was tested. Which Potency did it give?
A: Its Potency is “inactive”.

Q: Which Potency does the source give for `Cc1cc(NC(=O)CNCC(c2ccccc2)N(C)C)c([N+](=O)[O-])cc1C` (stereo not given) here?
A: Its Potency is inconclusive: 12.6 µM [inhibitor, full curve].

Q: `Cc1ccc(C2C3=C(CC(C)(C)CC3=O)N=C3c4ccccc4C(=O)C32)cc1` (stereo not given) was tested. Which Potency did it give?
A: The Potency was active: 44.7 µM.

Q: With `O=C(NCc1ccco1)c1ccc(Br)c(S(=O)(=O)N2CCCCC2)c1` as the compound, how does the Potency read?
A: Its Potency is inconclusive: 39.8 µM [inhibitor, partial curve].

Q: Which Potency does the source give for `O=C(Oc1ccc(Cl)cc1)c1ccc(N2CCOCC2)c([N+](=O)[O-])c1` here?
A: Its Potency is inconclusive: 35.5 µM [inhibitor, partial curve].

Q: Which Potency does the source give for `O=C(Nc1cc([N+](=O)[O-])ccc1O)c1cccc(C(=O)Nc2cc([N+](=O)[O-])ccc2O)c1` here?
A: The Potency was inconclusive: 44.7 µM [inhibitor, partial curve].

Q: With `CCCCC1CCC(C(=O)N2CC(=O)Nc3ccc(Br)cc3C2c2ccc(F)cc2)CC1` (stereo not given) as the compound, how does the Potency read?
A: Its Potency is “inactive”.

Q: With `CC(C)CN(CC(C)C)C(=O)c1cccc(S(=O)(=O)N2CCc3ccccc32)c1` as the compound, how does the Potency read?
A: Its Potency is active: 44.7 µM.

Q: For `CN(C)c1ccc(-c2nnn(CC(=O)Nc3ccccc3N3CCOCC3)n2)cc1`, which Potency is on record?
A: Its Potency is inconclusive: 50.1 µM [inhibitor, partial curve].

Q: `Cc1cc(Cl)ccc1-n1c(CCC(=O)O)ccc1-c1cccs1` was tested. Which Potency did it give?
A: Its Potency is inconclusive: 28.2 µM [inhibitor, partial curve].

Q: With `Cc1cc(-c2n[nH]c(=S)n2/N=C/c2cccs2)n[nH]1` as the compound, how does the Potency read?
A: Its Potency is active: 6.31 µM.

Q: With `Cc1cccc2c1-c1sc(C(=O)Nc3ccc(F)cc3F)cc1CO2` as the compound, how does the Potency read?
A: The Potency was “inactive”.

Q: With `CCOC(=O)NC(C(Cl)(Cl)Cl)S(=O)(=O)c1ccccc1` (stereo not given) as the compound, how does the Potency read?
A: The Potency was inconclusive: 89.1 µM [inhibitor, single point].

Q: `Cc1ccc(/C=N/Nc2ccc3ccccc3n2)o1` was tested. Which Potency did it give?
A: Its Potency is inconclusive: 56.2 µM [inhibitor, partial curve].

Q: With `Cc1ccc(N(CC(=O)N2CCN(c3cc(C)ccc3C)CC2)S(=O)(=O)c2c(C)nn(C)c2C)cc1` as the compound, how does the Potency read?
A: Its Potency is inconclusive: 10 µM [inhibitor, full curve].

Q: With `O=C(N/N=C/c1ccc(Cl)cc1Cl)Nc1ccccc1` as the compound, how does the Potency read?
A: The Potency was “inactive”.

Q: How did the Potency turn out when `COc1ccc(-n2c(C)cc(C(=O)Cn3c(NCCO)nc4ccccc43)c2C)cc1` was run?
A: Its Potency is inconclusive: 79.4 µM [inhibitor, partial curve].

Q: For `CCOc1ccc(NS(=O)(=O)c2ccc(NC(=O)c3ccccn3)cc2)cc1`, which Potency is on record?
A: Its Potency is “inactive”.

Q: With `CCCCc1n[nH]c(=S)n1Cc1ccc(C)cc1` as the compound, how does the Potency read?
A: Its Potency is active: 14.1 µM.

Q: `CCc1ccc(Nc2ccc(C(N)=O)cc2[N+](=O)[O-])cc1` was tested. Which Potency did it give?
A: Its Potency is inconclusive: 22.4 µM [inhibitor, full curve].
